# The campaign covered roughly 48,000 compounds. About 120 (0.25%) were called active. Roughly 4% stayed inconclusive and do not appear here. The call rests on the fitted dose curve; in most records, active means well fitted activation curve with a large enough effect; inconclusive means small, poorly fitted or top-dose-only effect, or another doubt; inactive means no such curve, though single readings can be large or run the other way. This is one part of the list.
# Assay: Primary qHTS for Identification of Small Molecule Activators of Huntingtin-Antisense Promoter Activity; further: nearly all actives have a fitted effect of over 55% in size
# Settings: HEK293 HTT-AS promoter firefly luciferase reporter (activity 0% = vehicle and -100% = no light), 24 h; series mostly up to 57.5 µM; activity change, positive = activation: at the top concentration
# In short: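 Quantitative HTS used concentration series of up to 57.5 uM final on HEK293 luciferase reporter cells, 24 h at 37 degrees C. Readout was Dual-Glo firefly luminescence.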
row,Structure (SMILES),"activity change, positive = activation"
1,Cc1cc(C)n(-c2nc3cc(Cl)ccc3nc2N2CCN(c3ccccc3F)CC2)n1,inactive: -14.3%
2,Cc1ccc(CNC(=O)CSc2nc3n[nH]c(C)c3c(=N)n2-c2ccccc2Cl)cc1,inactive: -10.4%
3,O=C(Nc1ccccc1C(=O)OCc1cc(=O)n2nc(C3CC3)sc2n1)c1cccc(F)c1,inactive: 20.1%
4,CC(C)c1noc(-c2ccccc2OCC(=O)Nc2cccc([N+](=O)[O-])c2)n1,inactive: -6.42%
5,CC(C)Sc1ncc(Cl)c(C(=O)Nc2ccc(S(=O)(=O)N3CCCCC3)cc2)n1,inactive: -6.95%
6,CCN(CC)S(=O)(=O)c1ccc2c(c1)c(=O)c(C(=O)N1CCN(c3cc(Cl)ccc3C)CC1)cn2C,inactive: 2.02%
7,Cc1ccc(NC(=O)C2CCN(S(=O)(=O)c3cccc4nonc34)CC2)cc1C,inactive: -18%
8,Cc1ccc(-c2cc3nc(-c4ccccc4)cc(C(F)(F)F)n3n2)cc1,inactive: -6.03%
9,COc1cc(C2CC(=O)Oc3c2c(=O)[nH]c2ccccc32)cc(OC)c1OC (centres undefined),inactive: -13.3%
10,CCOc1ccc(Nc2c(S(=O)(=O)c3ccccc3)cnc3ccc(F)cc23)cc1,inactive: -32.7%
11,O=C(Oc1ccccc1F)c1nc(SCc2ccc(F)cc2)ncc1Cl,inactive: 4.66%
12,COc1ccc(-c2nc3scc(CCNS(=O)(=O)c4ccc5c(c4)OCCO5)n3n2)cc1,inactive: -15.8%
13,CC(=O)N1CCc2cc(Br)cc(S(=O)(=O)CCC(=O)N3CCN(c4ccccc4Cl)CC3)c21,inactive: -17.4%
14,Cc1ccc(CN(C(=O)COc2cc(C)c(Cl)c(C)c2)c2ccccn2)o1,inactive: -25.7%
15,CCOc1ccc(-c2c(C)nn3c(C)c(C(=O)Nc4cc(C)cc(C)c4)cnc23)cc1OCC,inactive: -12.3%
16,CC1=C(C(=O)Nc2ccccc2C)C(c2ccccn2)n2ncnc2N1 (centres undefined),inactive: -9.41%
17,CC(=O)N1CCc2cc(S(=O)(=O)NC(CC(C)C)C(=O)Nc3cc(C)cc(C)c3)ccc21 (centres undefined),inactive: -16.6%
18,CCC(=O)C1=C(c2ccc(C)cc2)N(C(=O)CC)n2c(nnc2C2CCCCC2)S1,inactive: -20.7%
19,Cc1c(Cl)cccc1NC(=O)CCOc1ccccc1,inactive: 0.0583%
20,CCOc1ccc(Cn2c(=O)sc3ccccc32)cc1,inactive: -10.4%
21,Cc1cccn2c(=O)c3cc(C#N)c(=O)n(-c4nnc(SCc5ccc(Cl)cc5)s4)c3nc12,inactive: -13.5%
22,CC1=C(C(=O)Nc2ccc(Cl)cc2)C(c2ccccc2)n2ncc(C(=O)Nc3ccccc3)c2N1 (centres undefined),inactive: -55%
23,Cc1cc(C)c2c(c1)c(C)cc1nnc(SCc3ccccc3C#N)n12,inactive: -16.5%
24,Cc1ccc(NC(=O)CN2C(=O)COc3ccc(S(=O)(=O)NC4CCCC4)cc32)cc1N(C)C,inactive: -22.1%
25,Cc1ccc(C)c(Cn2c(=O)c3c(nc4n3CCN4c3ccccc3)n(C)c2=O)c1,inactive: -14.6%

row,Structure (SMILES),"activity change, positive = activation"
1,CCSc1ncc(Cl)c(C(=O)Nc2sc3c(c2C(=O)NCCCOC)CCCC3)n1,inactive: -7.44%
2,CC(=O)N1CCc2c(sc3c2c(=O)n(CCc2ccccc2)c(=O)n3Cc2ccccc2C)C1,inactive: -45.9%
3,COc1ccc(NC(=O)CSc2nc(-c3cccc(C)c3)[nH]c2-c2ccccc2)cc1OC,inactive: -20.6%
4,Cc1ccc(C)c(-c2ccc(=O)n(Cc3c(F)cccc3Cl)n2)c1,inactive: -19.3%
5,COc1ccc(N2C(=O)CSC23C(=O)N(CC(=O)NCCc2ccccc2)c2ccccc23)cc1 (centres undefined),inactive: -1.7%
6,O=C(CSc1nc(=O)[nH]c2c1CCCC2)NCc1ccccc1,inactive: -1.16%
7,COc1ccccc1C(=O)Nc1ccc(C(=O)OCc2cc(=O)n3nc(C4CC4)sc3n2)cc1,inactive: 0%
8,Cc1nn2c(C)c(C(=O)NC(C)(C)C)cnc2c1-c1ccc(F)cc1,inactive: -14.8%
9,Cc1ccc(N2CC(NC(=O)c3cc4ccccc4o3)CC2=O)cc1 (centres undefined),inactive: -5.44%
10,COc1ccc(NC(=O)Cn2c(=O)n(Cc3ccccc3)c(=O)c3sc4ccccc4c32)cc1,inactive: -9.7%
11,CCOc1ccc(C(=O)Nc2ccc3oc(-c4ccc5ccccc5c4)nc3c2)cc1,inactive: 13.4%
12,CCCCNC(=O)c1cc2n(n1)CCCN(Cc1ccc(C)cc1)C2=O,inactive: 11%
13,CCc1ccc(Cn2c(CNS(=O)(=O)c3ccc(C)c(C)c3)nc3cccnc32)cc1,inactive: -13.9%
14,Cc1ccc(S(=O)(=O)c2c(O)cc(C)c(NS(=O)(=O)c3ccc(Cl)cc3)c2C)cc1,inactive: -36.1%
15,COc1ccccc1N1CCN(S(=O)(=O)c2c(C)nc3sccn3c2=O)CC1,inactive: -6.81%
16,Cc1cc(C)c2sc(N3CCN(C(=O)c4ccc(N(C)C)cc4)CC3)nc2c1,inactive: -21.4%
17,CCCCCCCCCCCCCCCCCC(=O)OCC(O)CO (centres undefined),inactive: -2.57%
18,CC(C)c1nn2c(=O)cc(COC(=O)c3ccco3)nc2s1,inactive: 2.1%
19,CCC(Oc1ccc(F)cc1)C(=O)Nc1c(C(=O)c2ccc(C)cc2)oc2ccccc12 (centres undefined),inactive: -1.27%
20,CCn1cc(C(=O)N2CCN(c3ccccc3)CC2)c(=O)c2cc(S(=O)(=O)N3CCOCC3)ccc21,inactive: -13%
21,CCn1c2c(c(=O)n3ncc(C(=O)N4CCN(c5ccc(Cl)cc5)CC4)c13)CN(Cc1ccc(OC)cc1)CC2,inactive: -63.6%
22,COc1ccc(-c2nc3scc(CCNS(=O)(=O)c4ccc(F)cc4C)n3n2)cc1,inactive: -25.1%
23,COC(=O)c1cc2oc3ccccc3c2n1Cc1ccc(Cl)cc1,inactive: 11.4%
24,CCN(CC)CCNC(=O)c1cc2c(=O)n(C)c3cc(Cl)ccc3c2s1,inactive: -16.8%

# — PubChem BioAssay AID1508624 (National Center for Advancing Translational Sciences (NCATS), 2021)
